Experimental data taken from PMC4336329 (PLoS ONE, 2015).
Among all 310,000 compounds or so, about 14,000 (4.5%) showed an effect of 50% or more. Effects have a minus sign here. This is one part of the list.

What follows are compounds tested against human ether-à-go-go-related gene (hERG) potassium channel (human, UniProt Q12809) (assay: primary screen, population patch clamp on CHO cells stably expressing hERG).
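Also: peak tail current of the secondary pulse compared with the same well before compound.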

human ether-à-go-go-related gene (hERG) potassium channel, sequence (Q12809 whole entry, looked up): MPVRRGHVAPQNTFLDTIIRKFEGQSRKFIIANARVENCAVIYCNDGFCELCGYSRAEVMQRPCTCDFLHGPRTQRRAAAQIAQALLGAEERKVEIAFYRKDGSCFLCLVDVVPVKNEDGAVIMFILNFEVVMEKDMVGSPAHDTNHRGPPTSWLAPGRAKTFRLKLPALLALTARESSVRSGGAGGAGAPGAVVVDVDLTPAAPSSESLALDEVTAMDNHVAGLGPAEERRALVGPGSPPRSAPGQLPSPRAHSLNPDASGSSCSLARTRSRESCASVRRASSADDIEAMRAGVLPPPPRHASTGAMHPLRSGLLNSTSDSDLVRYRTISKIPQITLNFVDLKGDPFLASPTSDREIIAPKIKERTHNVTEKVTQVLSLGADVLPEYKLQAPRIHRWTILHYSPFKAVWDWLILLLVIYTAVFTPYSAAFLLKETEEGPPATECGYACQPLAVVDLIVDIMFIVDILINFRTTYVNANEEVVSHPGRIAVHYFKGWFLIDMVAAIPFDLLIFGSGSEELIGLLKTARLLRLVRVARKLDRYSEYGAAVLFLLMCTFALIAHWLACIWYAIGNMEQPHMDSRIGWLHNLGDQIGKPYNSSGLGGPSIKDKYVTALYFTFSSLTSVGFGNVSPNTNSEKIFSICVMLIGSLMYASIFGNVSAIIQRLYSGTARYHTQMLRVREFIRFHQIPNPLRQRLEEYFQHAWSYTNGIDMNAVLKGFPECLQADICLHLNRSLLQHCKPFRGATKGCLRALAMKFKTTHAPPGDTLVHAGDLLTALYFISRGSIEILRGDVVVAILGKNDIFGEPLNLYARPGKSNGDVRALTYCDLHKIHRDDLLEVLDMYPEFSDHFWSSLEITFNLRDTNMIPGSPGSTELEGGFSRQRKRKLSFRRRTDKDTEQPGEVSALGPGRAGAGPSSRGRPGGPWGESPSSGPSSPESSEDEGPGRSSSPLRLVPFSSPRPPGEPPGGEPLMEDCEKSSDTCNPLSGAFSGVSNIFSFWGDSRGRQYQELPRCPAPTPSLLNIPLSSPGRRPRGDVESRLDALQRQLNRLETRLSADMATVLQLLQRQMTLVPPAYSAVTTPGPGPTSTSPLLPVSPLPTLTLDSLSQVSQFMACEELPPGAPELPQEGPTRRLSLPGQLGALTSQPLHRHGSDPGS

How did the “hERG current change (%, negative = inhibition) at 10uM” value turn out when `COc1ccc(-c2noc(CN3CCC(Cc4ccccc4)CC3)n2)cc1` was run?
The value was -8.3%.

`CC(=O)c1cc(-c2ccccc2)n(CC(=O)Nc2cccc(C)c2)c1C` was tested. Which “hERG current change (%, negative = inhibition) at 10uM” value did it give?
The value was 10.9%.

`COc1ccc(S(=O)(=O)N2CCCC2CNC(=O)C(=O)NCCc2ccccc2)cc1` (stereo not shown) was tested. Which “hERG current change (%, negative = inhibition) at 10uM” value did it give?
Its value is -22%.

`COc1ccc(NC(=O)C(CC(C)C)NS(=O)(=O)c2ccc3c(c2)CCN3C(C)=O)cc1OC` (stereo not shown) was tested. Which “hERG current change (%, negative = inhibition) at 10uM” value did it give?
The value was 9.69%.

How did the “hERG current change (%, negative = inhibition) at 10uM” value turn out when `O=C(Nc1ccccc1Oc1ccccc1)c1ccc(Br)o1` was run?
Its value is -2.85%.

With `COc1cccc(OC)c1OCCCCN1CCCCC1.O=C(O)C(=O)O` as the compound, how does the “hERG current change (%, negative = inhibition) at 10uM” value read?
Its value is -2.55%.

How did the “hERG current change (%, negative = inhibition) at 10uM” value turn out when `CCC(C)NS(=O)(=O)c1ccc(NC(=O)CCC2CCCCC2)cc1` (stereo not shown) was run?
Its value is 13.4%.

`C[C@H](NC(=O)[C@@H]1Cc2ccccc2CN1)C(=O)NC1CCCC1` was tested. Which “hERG current change (%, negative = inhibition) at 10uM” value did it give?
The value was 14%.

For `O=C(NCCO)c1cc2ccccc2c(=O)s1`, which “hERG current change (%, negative = inhibition) at 10uM” value is on record?
The value was 6.96%.

How did the “hERG current change (%, negative = inhibition) at 10uM” value turn out when `COC(=O)c1ccc(S(=O)(=O)N2CCCN(Cc3ccc(F)cc3)CC2)n1C` was run?
Its value is -14.1%.

How did the “hERG current change (%, negative = inhibition) at 10uM” value turn out when `Clc1cccc(Nc2nc(-c3ccncc3)nc3ccccc23)c1` was run?
The value was -27.7%.

How did the “hERG current change (%, negative = inhibition) at 10uM” value turn out when `COc1ccc2nc3sc(C(=O)NCc4cccs4)c(N)c3cc2c1` was run?
The value was 2.97%.

With `CCOc1ccccc1OCCCOc1ccc(C)cc1Cl` as the compound, how does the “hERG current change (%, negative = inhibition) at 10uM” value read?
Its value is 0.906%.

`CCc1ccc(OCC(=O)N/N=C(\C)c2ccc3c(c2)OCCO3)cc1` was tested. Which “hERG current change (%, negative = inhibition) at 10uM” value did it give?
Its value is -21.5%.

For `Cc1ccc(/C=N/NC(=O)NC2CCCCC2)o1`, which “hERG current change (%, negative = inhibition) at 10uM” value is on record?
The value was -2.7%.

`Cc1ccc(-c2cc(C(=O)Nc3nn[nH]n3)c3ccccc3n2)cc1` was tested. Which “hERG current change (%, negative = inhibition) at 10uM” value did it give?
The value was 9.28%.

How did the “hERG current change (%, negative = inhibition) at 10uM” value turn out when `Cc1ccc2oc(C(=O)N(Cc3ccc(N(C)C)cc3)CC3CCCO3)c(C)c2c1` (stereo not shown) was run?
Its value is -14.8%.

Which “hERG current change (%, negative = inhibition) at 10uM” value does the source give for `Cc1nonc1CN(C)C(=O)CC1C(=O)NCCN1Cc1c(F)cccc1Cl` (stereo not shown) here?
Its value is 1.94%.

With `C=CCNC(=O)c1cc2c(=O)n3cc(C)ccc3nc2nc1NCC1CCCO1` (stereo not shown) as the compound, how does the “hERG current change (%, negative = inhibition) at 10uM” value read?
Its value is -73%.

With `CCCN(CCC)CCCNC(=O)c1cc2c(=O)n(C)c3ccccc3c2n1C` as the compound, how does the “hERG current change (%, negative = inhibition) at 10uM” value read?
Its value is -5.11%.

Which “hERG current change (%, negative = inhibition) at 10uM” value does the source give for `NC(=O)c1sc2nc3c(c(-c4ccco4)c2c1N)CCC3` here?
Its value is -11.7%.

For `CCc1ccc(C(=O)Nc2cc(C)ccc2F)s1`, which “hERG current change (%, negative = inhibition) at 10uM” value is on record?
The value was 24%.

For `CC(=O)N1CCSc2ccc(S(=O)(=O)Nc3cccc(C)c3)cc21`, which “hERG current change (%, negative = inhibition) at 10uM” value is on record?
The value was -3.2%.

`CC(C(=O)O)n1c2ccccc2c2cn[nH]c(=O)c21` (stereo not shown) was tested. Which “hERG current change (%, negative = inhibition) at 10uM” value did it give?
The value was 15.8%.

How did the “hERG current change (%, negative = inhibition) at 10uM” value turn out when `Cc1ccc(C)c(S(=O)(=O)N2CCCCC2CCNC(=O)C(=O)NCc2cccnc2)c1` (stereo not shown) was run?
The value was -37.1%.

With `CCC(C)c1ccc(S(=O)(=O)Nc2cccnc2)cc1.Cl` (stereo not shown) as the compound, how does the “hERG current change (%, negative = inhibition) at 10uM” value read?
Its value is 11.9%.

`COc1cc2ccccc2cc1C(=O)NCc1ccncc1` was tested. Which “hERG current change (%, negative = inhibition) at 10uM” value did it give?
The value was -23.9%.

With `CC(=O)NC(c1ccccc1)c1cc([N+](=O)[O-])c2cccnc2c1O` (stereo not shown) as the compound, how does the “hERG current change (%, negative = inhibition) at 10uM” value read?
Its value is 8.39%.

For `O=C(NCc1ccccc1)C1CCCN(c2ncnc3c2nc2n3CCCCC2)C1` (stereo not shown), which “hERG current change (%, negative = inhibition) at 10uM” value is on record?
The value was -69.1%.

For `CC(C)NC(=O)CSc1nc2ccccc2n1CC(=O)N1CCc2ccccc21`, which “hERG current change (%, negative = inhibition) at 10uM” value is on record?
The value was -8%.

How did the “hERG current change (%, negative = inhibition) at 10uM” value turn out when `CCn1c(COc2ccc3c(c2)OCO3)nnc1SCC(=O)c1ccc(Cl)cc1` was run?
The value was 4.61%.

Which “hERG current change (%, negative = inhibition) at 10uM” value does the source give for `NNC(=O)c1sccc1OCc1ccc(Cl)cc1` here?
Its value is 2.41%.

`COc1ccc(S(=O)(=O)NCc2ccccn2)c(Cl)c1Cl` was tested. Which “hERG current change (%, negative = inhibition) at 10uM” value did it give?
The value was -13.2%.

With `COc1ccccc1N1CCN(C(=O)c2cc(-c3ccc(F)cc3)on2)CC1` as the compound, how does the “hERG current change (%, negative = inhibition) at 10uM” value read?
Its value is 19.1%.

`Clc1ccc(C(c2ccccc2)N2CCNCC2)cc1` (stereo not shown) was tested. Which “hERG current change (%, negative = inhibition) at 10uM” value did it give?
The value was -22.7%.

Which “hERG current change (%, negative = inhibition) at 10uM” value does the source give for `CN1CCN(c2ccccc2NC(=O)c2ccc(-c3ccc(Br)cc3)o2)CC1` here?
The value was -30.5%.

For `O=C(CNS(=O)(=O)c1ccc(Br)cc1Cl)OCC(=O)c1ccc[nH]1`, which “hERG current change (%, negative = inhibition) at 10uM” value is on record?
Its value is -14%.

For `COc1ccc(Nc2nc(C(C)(C)C)nc3c2nnn3Cc2ccccc2Cl)cc1OC`, which “hERG current change (%, negative = inhibition) at 10uM” value is on record?
Its value is 14%.

Which “hERG current change (%, negative = inhibition) at 10uM” value does the source give for `COC(=O)c1[nH]c2cc(OC)c(OC)cc2c1NC(=O)CN1C[C@H]2C[C@@H](C1)c1cccc(=O)n1C2` here?
Its value is 9.57%.

Which “hERG current change (%, negative = inhibition) at 10uM” value does the source give for `Cc1ccc(OCCC(=O)OCC(=O)Nc2ccc3[nH]c(=O)[nH]c3c2)cc1` here?
The value was -20.3%.

How did the “hERG current change (%, negative = inhibition) at 10uM” value turn out when `Cc1cc(C)cc(NC(=O)N(CCC#N)Cc2cccs2)c1` was run?
Its value is 6.56%.

Which “hERG current change (%, negative = inhibition) at 10uM” value does the source give for `Cc1cccc(NC(=O)c2cc(Cl)sc2Cl)c1C` here?
The value was 14.3%.

With `O=C(O)c1ccc(N/N=C/c2ccc(OC(=O)c3cccc(Cl)c3)cc2)cc1` as the compound, how does the “hERG current change (%, negative = inhibition) at 10uM” value read?
Its value is -9.22%.

Which “hERG current change (%, negative = inhibition) at 10uM” value does the source give for `O=C(Nc1ccc(-c2nc3cc(NC(=O)c4cccs4)ccc3o2)cc1)c1cccs1` here?
Its value is 31.2%.

With `NS(=O)(=O)OCC(Cc1ccccc1)N1C(=O)c2ccccc2C1=O` (stereo not shown) as the compound, how does the “hERG current change (%, negative = inhibition) at 10uM” value read?
The value was -11.4%.

For `O=C(N/N=C(\Cc1ncc[nH]1)c1ccccc1)c1cccnc1`, which “hERG current change (%, negative = inhibition) at 10uM” value is on record?
Its value is 7.78%.

Which “hERG current change (%, negative = inhibition) at 10uM” value does the source give for `O=C(/C=C/c1ccccc1[N+](=O)[O-])N1CCN(c2ccccc2F)CC1` here?
Its value is -13.8%.

Which “hERG current change (%, negative = inhibition) at 10uM” value does the source give for `O=C1CC(=O)N(CCc2ccc(F)cc2)C(=O)N1` here?
Its value is 9.33%.

For `CCOC(=O)c1ccc2c(c1)nc(SC/C(O)=C(\C#N)c1nc3ccccc3[nH]1)n2CC`, which “hERG current change (%, negative = inhibition) at 10uM” value is on record?
The value was 21%.

`CC(=O)Nc1ccc(S(=O)(=O)NCCc2ccc(S(N)(=O)=O)cc2)cc1` was tested. Which “hERG current change (%, negative = inhibition) at 10uM” value did it give?
Its value is 18.1%.

`CCOC(=O)c1ccc(N2C(=O)C(CC(=O)NC)N(CCc3ccc(OC)c(OC)c3)C2=S)cc1` (stereo not shown) was tested. Which “hERG current change (%, negative = inhibition) at 10uM” value did it give?
Its value is -0.0322%.

Which “hERG current change (%, negative = inhibition) at 10uM” value does the source give for `O=C(CSc1nnc(-c2ccncc2)n1Cc1ccccc1)NC1CCCCC1` here?
Its value is -18.7%.

For `CC(C)CC(NS(=O)(=O)c1ccc2[nH]c(=O)c(=O)[nH]c2c1)C(=O)O` (stereo not shown), which “hERG current change (%, negative = inhibition) at 10uM” value is on record?
Its value is 16.5%.

For `Cc1ccc(C(=O)N/C(=C/c2cn(-c3ccccc3)nc2-c2ccccc2)C(=O)O)cc1`, which “hERG current change (%, negative = inhibition) at 10uM” value is on record?
Its value is 18.1%.

`COc1ccc2c(c1)OC[C@H]1[C@H]2N2C(=O)c3cc(Br)ccc3NC(=O)[C@@]2(C)[C@H]1c1ccccc1` was tested. Which “hERG current change (%, negative = inhibition) at 10uM” value did it give?
The value was -6.04%.
